Screen size: about 3,200 compounds; about 75 (2%) showed an effect of 50% or more. The list shows a part of the results.
What follows are compounds tested on T1, S. aureus MSSA476. Settings: relative growth, OD600, TSB; 25 µM; inhibitor.
T1 construct: MSSA476
Design: species or system S. aureus MSSA476 (TSB) or V. cholerae SAD30 (LB); 384-well bacterial growth screen at 25 uM, OD600 relative to DMSO control
With `CC(Cl)C(=O)N1CCc2ccccc21` (stereo not shown) [5-H04, 2-chloro-1-(2,3-dihydro-1H-indol-1-yl)propan-1-one] the “% of control remaining” value was 77.9599%.
In the case of `C=CC(=O)N1CCCn2ncc(C3CC3)c21` [3-M15, 1-{3-cyclopropyl-4H,5H,6H,7H-pyrazolo[1,5-a]pyrimidin-4-yl}prop-2-en-1-one], the “% of control remaining” value is reported as 105.877%.
With `C=CC(=O)NC(C)Cc1cccn1C` (stereo not shown) [3-M22, N-[1-(1-methyl-1H-pyrrol-2-yl)propan-2-yl]prop-2-enamide] the “% of control remaining” value was 89.8563%.
`O=C(CCl)NCc1ccc(OC(F)(F)F)cc1` [6-G08, 2-chloro-N-{[4-(trifluoromethoxy)phenyl]methyl}acetamide] was tested, and the “% of control remaining” value was 87.7561%.
With `N#CC(=Cc1ccc(Cl)cc1)C(=O)Nc1ccc2c(c1)OCCO2` [9-E22, 3-(4-chlorophenyl)-2-cyano-N-(2,3-dihydro-1,4-benzodioxin-6-yl)prop-2-enamide] the “% of control remaining” value was 81.1985%.
With `C=CC(=O)N(C)CC(=O)NC1CCC(N2CCCCC2=O)CC1` (stereo not shown) [3-A06, N-methyl-N-({[4-(2-oxopiperidin-1-yl)cyclohexyl]carbamoyl}methyl)prop-2-enamide] the “% of control remaining” value was 109.708%.
With `C=CC(=O)NC(C(N)=O)c1ccccc1F` (stereo not shown) [2-H19, N-[carbamoyl(2-fluorophenyl)methyl]prop-2-enamide] the “% of control remaining” value was 120.453%.
For `COc1ccc(C=C(C#N)C(=O)Nc2ccccc2C)cc1O` [8-P15, 2-cyano-3-(3-hydroxy-4-methoxyphenyl)-N-(2-methylphenyl)prop-2-enamide], the “% of control remaining” value was 104.232%.
With `CCc1ccc(NC(=O)C(C#N)=Cc2ccn(-c3ccccc3)n2)cc1` [8-K22, 2-cyano-N-(4-ethylphenyl)-3-(1-phenyl-1H-pyrazol-3-yl)prop-2-enamide] the “% of control remaining” value was 72.6971%.
`CCCCNC(=O)C(C#N)=Cc1cccc2ccccc12` [8-N13, N-butyl-2-cyano-3-(naphthalen-1-yl)prop-2-enamide] was tested, and the “% of control remaining” value was 85.9751%.
`C=CC(=O)N(Cc1ccc2c(c1)CCC2)Cc1c(C)noc1C` [1-L09, N-[(2,3-dihydro-1H-inden-5-yl)methyl]-N-[(3,5-dimethyl-1,2-oxazol-4-yl)methyl]prop-2-enamide] was tested, and the “% of control remaining” value was 88.2637%.
In the case of `COc1cc(NC(=O)CCl)c(C)cc1[N+](=O)[O-]` [4-M09, 2-chloro-N-(5-methoxy-2-methyl-4-nitrophenyl)acetamide], the “% of control remaining” value is reported as 97.5703%.
For `C=CC(=O)N1CCC(C(=O)NCCC2CCS(=O)(=O)C2)CC1` (stereo not shown) [2-H05, N-[2-(1,1-dioxo-1lambda6-thiolan-3-yl)ethyl]-1-(prop-2-enoyl)piperidine-4-carboxamide], the “% of control remaining” value was 100.957%.
With `C=CC(=O)N1CCC(C(=O)NC2CCCc3nc(C)ncc32)CC1` (stereo not shown) [3-I17, N-(2-methyl-5,6,7,8-tetrahydroquinazolin-5-yl)-1-(prop-2-enoyl)piperidine-4-carboxamide] the “% of control remaining” value was 114.584%.
`CCCCNC(=O)C(C#N)=Cc1ccc(C)s1` [9-J06, N-butyl-2-cyano-3-(5-methylthiophen-2-yl)prop-2-enamide] was tested, and the “% of control remaining” value was 65.0187%.
For `COc1ccc2cc(CN(C)C(=O)CCl)ccc2c1` [4-A19, 2-chloro-N-[(6-methoxynaphthalen-2-yl)methyl]-N-methylacetamide], the “% of control remaining” value was 115.865%.
`N#CC(=Cc1cnc2ccccn12)C(=O)NCc1ccccc1` [9-P18, N-benzyl-2-cyano-3-{imidazo[1,2-a]pyridin-3-yl}prop-2-enamide] was tested, and the “% of control remaining” value was 88.3895%.
In the case of `C=CC(=O)Nc1cccc(-c2ccon2)c1` [3-L04, N-[3-(1,2-oxazol-3-yl)phenyl]prop-2-enamide], the “% of control remaining” value is reported as 104.484%.
With `N#CC(=Cc1ccc(OC(F)F)cc1)C(=O)N1CCCC1` [8-L22, 3-[4-(difluoromethoxy)phenyl]-2-(pyrrolidine-1-carbonyl)prop-2-enenitrile] the “% of control remaining” value was 104.896%.
In the case of `CC(Cl)C(=O)c1ccc(C(C)(C)C)cc1` (stereo not shown) [10-D14, 1-(4-tert-butylphenyl)-2-chloropropan-1-one], the “% of control remaining” value is reported as 98.4375%.
`COc1cccc2cc(C=C(C#N)C(=O)Nc3ccc(C)cc3)oc12` [9-A17, 2-cyano-3-(7-methoxy-1-benzofuran-2-yl)-N-(4-methylphenyl)prop-2-enamide] was tested, and the “% of control remaining” value was 102.472%.
`C=CC(=O)Nc1cccc(-c2nc(COC)no2)c1C` [1-J08, N-{3-[3-(methoxymethyl)-1,2,4-oxadiazol-5-yl]-2-methylphenyl}prop-2-enamide] was tested, and the “% of control remaining” value was 101.626%.
In the case of `CC(Cl)C(=O)Nc1ccc(F)cc1` (stereo not shown) [6-K15, 2-chloro-N-(4-fluorophenyl)propanamide], the “% of control remaining” value is reported as 99.7073%.
With `COc1cccc(NC(=O)C(C#N)=Cc2cccc(O)c2)c1` [8-P03, 2-cyano-3-(3-hydroxyphenyl)-N-(3-methoxyphenyl)prop-2-enamide] the “% of control remaining” value was 76.3485%.
With `Cc1cc(C)n(CCCNC(=O)C(C)Cl)n1` (stereo not shown) [7-O19, 2-chloro-N-[3-(3,5-dimethyl-1H-pyrazol-1-yl)propyl]propanamide] the “% of control remaining” value was 98.2732%.
In the case of `Cc1ccc(NC(=O)C(C#N)=Cc2cccc(C(F)(F)F)c2)c(C)c1` [8-H11, 2-cyano-N-(2,4-dimethylphenyl)-3-[3-(trifluoromethyl)phenyl]prop-2-enamide], the “% of control remaining” value is reported as 111.867%.
For `CC(NC(=O)CCl)c1ccc(-c2ccccc2)cc1` (stereo not shown) [5-A17, N-(1-{[1,1'-biphenyl]-4-yl}ethyl)-2-chloroacetamide], the “% of control remaining” value was 97.9964%.
`CC1=C(C#N)C(=O)N(C)C(=O)C1=Cc1ccc(-c2ccccc2Cl)o1` [9-K18, 5-{[5-(2-chlorophenyl)furan-2-yl]methylidene}-1,4-dimethyl-2,6-dioxo-1,2,5,6-tetrahydropyridine-3-carbonitrile] was tested, and the “% of control remaining” value was 64.7191%.

From publication PMC11995724, “Antibiotic target discovery by integrated phenotypic and activity-based profiling of electrophilic fragments” (Cell chemical biology, 2025)
